# Reference: the supplement of paper PMC4166925
# ± gives the standard deviation of the averaged measurements. Over roughly 33,000 sequences, “E-score (dimensionless, -0.5 to 0.5)” has its median near -0.046; the highest 2% begin near 0.36. The list shows a part of the results.
# Test system: T1, SpTbr T-box DNA-binding domain (GST fusion)
# T1 sequence: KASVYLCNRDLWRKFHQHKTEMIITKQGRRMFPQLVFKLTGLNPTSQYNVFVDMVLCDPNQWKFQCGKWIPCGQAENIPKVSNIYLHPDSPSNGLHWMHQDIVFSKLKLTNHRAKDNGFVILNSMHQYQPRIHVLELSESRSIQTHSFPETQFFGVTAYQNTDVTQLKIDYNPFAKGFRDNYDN
# Assay: PBM E-score of 8-mer (E-score (dimensionless, -0.5 to 0.5)); Tbr is Tbrain of the sea star Patiria miniata (Pm) or the sea urchin Strongylocentrotus purpuratus (Sp); higher = stronger binding preference; most listed sequences are background and not binding sites
# Conditions: the construct has about 5 more residues each side
# Summary of the method: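 Each ungapped 8-mer received an enrichment E-score from the Universal PBM Analysis Suite, averaged over duplicate arrays. The proteins were Tbr T-box DNA-binding domains, covering the whole T-box plus about five flanking residues, fused to GST and expressed in BL21 E. coli at 20 °C before glutathione affinity purification. Universal Agilent oligonucleotide arrays were made double-stranded by primer extension and incubated with 200 nM protein in PBS (pH 7.5). The arrays were then scanned and quantified, and every 8-mer was scored from probe intensities.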
row,Sequence,PBM E-score of 8-mer
1,GAGGTGTA,0.418 ± 0.014
2,CAAGGGTG,0.325 ± 0.017
3,GGAACGAA,-0.00562 ± 0.061
4,ACCCCTTA,0.00928 ± 0.01
5,GTGTAAGA,0.249 ± 0.057
6,CTACCGTC,-0.191 ± 0.04
7,CTAGAGAG,-0.137 ± 0.031
8,GCTTCGAA,-0.114 ± 0.09
9,CTGCGCGA,0.22 ± 0.044
10,ATATGTGG,0.179 ± 0.024
11,AGACAACT,-0.101 ± 0.041
12,GCCTTTAA,-0.132 ± 0.054
13,AATTCGGC,-0.162 ± 0.0099
14,CGTCATAC,0.0584 ± 0.068
15,GAGAGAGA,0.104 ± 0.023
16,AACGGTAT,-0.163 ± 0.028
17,CGCGGATC,0.0599 ± 0.0062
18,CGCACAGC,0.122 ± 0.012
19,AATGGGTA,-0.0623 ± 0.068
20,GCCCCTCC,0.0214 ± 0.032
21,CCTGCATA,-0.212 ± 0.035
22,CCCAGTAC,-0.2758 ± 0.00072

row,Sequence,PBM E-score of 8-mer
1,AGGACTTA,-0.218 ± 0.018
2,AGTTCCCC,-0.159 ± 0.037
3,AAGTAAGG,-0.0193 ± 0.068
4,TACTCGAA,-0.0428 ± 0.0042
5,AAAGCATC,-0.14597 ± 8.5e-05
6,ATGGGGAA,-0.091 ± 0.05
7,GTGATCAC,0.366 ± 0.022
8,AATCGACC,-0.0169 ± 0.018
9,AAGGGGGC,-0.3603 ± 0.0019
10,AGTGAAGC,-0.0861 ± 0.0037
11,GGTAAACA,0.0291 ± 0.022
12,AAATCTGG,-0.116 ± 0.028
13,AGCTGAAC,-0.164 ± 0.018
14,ATATAATG,-0.127 ± 0.054
15,ACTGTGGG,-0.0461 ± 0.019
16,AGATTGCA,0.0277 ± 0.024
17,CGTAGATA,-0.201 ± 0.0026
18,CCGGGCAA,-0.304 ± 0.029
19,GCGACACA,0.31 ± 0.0039
20,CACCAGTC,0.134 ± 0.069
21,ATCGTAGG,0.148 ± 0.11
22,GGGAGACA,0.135 ± 0.034

row,Sequence,PBM E-score of 8-mer
1,AATGTGCC,0.19 ± 0.092
2,GCGTTACC,0.277 ± 0.0084
3,CCGCGAGC,0.124 ± 0.14
4,GTGTCGCA,0.367 ± 0.021
5,CCCGCGTC,-0.138 ± 0.069
6,GAGTAGCC,-0.158 ± 0.021
7,TCCTTTAA,-0.012 ± 0.035
8,CGAGTGAC,0.201 ± 0.02
9,CCCTGTCA,0.112 ± 0.043
10,GGTTGTTA,0.213 ± 0.048
11,CGAACCAG,0.102 ± 0.015
12,AATGCAAT,-0.166 ± 0.027
13,ACCCTGGA,-0.0782 ± 0.025
14,AGGGCAGA,-0.101 ± 0.0021
15,TCTACCAA,-0.0863 ± 0.01
16,ATCGAGCG,-0.122 ± 0.019
17,GATCTACA,-0.07 ± 0.014
18,ACAGACCT,0.0459 ± 0.023
19,ACGGTTGA,0.129 ± 0.024
20,AGTACCCG,-0.148 ± 0.042
21,AAAATTCA,-0.00819 ± 0.0099
22,CAAAGGTC,-0.105 ± 0.028

row,Sequence,PBM E-score of 8-mer
1,AATCGGAT,-0.0152 ± 0.0036
2,CCAGTCGA,-0.138 ± 0.083
3,GGGAACGA,-0.0177 ± 0.016
4,AGTCTTCG,0.018 ± 0.021
5,CAGTGGGA,-0.157 ± 0.0099
6,CATCAAAC,-0.0179 ± 0.05
7,GGGTTGGA,0.00636 ± 0.061
8,CCCACAAA,-0.0699 ± 0.022
9,CTTACGGA,-0.115 ± 0.015
10,CGGAGAAG,-0.01176 ± 1.4e-05
11,AAATAGTG,0.0853 ± 0.11
12,AGTAAGAT,-0.157 ± 0.064
13,AACTCTCA,0.0929 ± 0.0053
14,CTCCTGGC,-0.045 ± 0.044
15,GACTGGAA,-0.121 ± 0.025
16,AGGCGCCC,-0.117 ± 0.067
17,CGACAGTA,0.141 ± 0.011
18,AACACACC,0.326 ± 0.0067
19,ATATTGCC,-0.119 ± 0.022
20,ACAAAGTA,-0.0223 ± 0.023
21,AGTACATC,-0.235 ± 0.068
22,ACGCCCAA,-0.049 ± 0.13

row,Sequence,PBM E-score of 8-mer
1,CGGCTGGA,-0.123 ± 0.0038
2,AGTAATAC,-0.185 ± 0.0083
3,AAAGTAAC,0.175 ± 0.1
4,ACCTCTAG,0.125 ± 0.0073
5,AGTGAATA,0.0848 ± 0.033
6,GGCGCAAC,0.145 ± 0.0099
7,GTGCACTA,0.201 ± 0.059
8,AAGGAAGG,-0.122 ± 0.043
9,GCTGTCAA,0.318 ± 0.049
10,TCAGAACA,-0.14 ± 0.044
11,CACTAGTC,0.167 ± 0.017
12,CCCACGGG,-0.28 ± 0.072
13,ACCAGTGC,-0.0323 ± 0.048
14,AAGTGAGT,0.122 ± 0.065
15,CGGTAAGA,-0.238 ± 0.025
16,CAAGCTCC,-0.227 ± 0.027
17,AACTGTGC,-0.0399 ± 0.045
18,CATTGCGC,-0.0063 ± 0.0018
19,GGCACCAC,0.22 ± 0.051
20,AATTCCCT,-0.119 ± 0.041
21,TAAGTATA,-0.199 ± 0.043
